What was measured:
Assay in all cases: cell-based or functional assay
human GLP-1R = human GLP-1R (human, UniProt P43220)
GCGR = target: GCGR
β-klotho (KLB) = target: β-klotho (KLB)

Binder | GLP-1 R agonist activity (EC50, nM) (human GLP-1R) [nM] | GCGR agonist activity (EC50, nM) (GCGR) [nM] | FGF21 activity (EC50, nM) (β-klotho (KLB)) [nM]
A395L1F9L5M2 (Fc fusion) HSQGTFTSDYSKYLDEEAAQDFVQWLLAGGPSSGAPPPSGGGGSGGGGSGGGGSA[letters of human IgG1 Fc with changes omitted]GGGGAGGGGAGGGGAHPIPDSSPLLQFGGQVRQRYLYTDDAQQTEAHLEIREDGTVGGAADQSPESLLQLKALKPGVIQILGVKTSRFLCQRPDGALYGSLHFDPEACSFRERLLEDGYNVYQSEAHGLPLHCPGNKSPHRDPAPRGPCRFLPLPGLPPALPEPPGILAPQPPDVGSSDPLSMVGGSQGRSPSYES | 1.31 | 1.34 | 1.36
A266L1F9L5M2 (Fc fusion) HSQGTFTSDYSKYLDEQAAQDFVQWLLDGGPSSGAPPPSGGGGSGGGGSGGGGSA[letters of human IgG1 Fc with changes omitted]GGGGAGGGGAGGGGAHPIPDSSPLLQFGGQVRQRYLYTDDAQQTEAHLEIREDGTVGGAADQSPESLLQLKALKPGVIQILGVKTSRFLCQRPDGALYGSLHFDPEACSFRERLLEDGYNVYQSEAHGLPLHCPGNKSPHRDPAPRGPCRFLPLPGLPPALPEPPGILAPQPPDVGSSDPLSMVGGSQGRSPSYES | 1.28 | 1.37 | 0.93
A402L1F9L5M2 (Fc fusion) HSQGTFTSDYSKYLDEEAAQDFVQWLLDGGPSSGAPPPSGGGGSGGGGSGGGGSA[letters of human IgG1 Fc with changes omitted]GGGGAGGGGAGGGGAHPIPDSSPLLQFGGQVRQRYLYTDDAQQTEAHLEIREDGTVGGAADQSPESLLQLKALKPGVIQILGVKTSRFLCQRPDGALYGSLHFDPEACSFRERLLEDGYNVYQSEAHGLPLHCPGNKSPHRDPAPRGPCRFLPLPGLPPALPEPPGILAPQPPDVGSSDPLSMVGGSQGRSPSYES | 1.21 | 1.25 | 0.89
A187L1F9L5M2 (Fc fusion) YSEGTFTSDYSKYLDEQAAQDFVQWLLDGGPSSGAPPPSGGGGSGGGGSGGGGSA[letters of human IgG1 Fc with changes omitted]GGGGAGGGGAGGGGAHPIPDSSPLLQFGGQVRQRYLYTDDAQQTEAHLEIREDGTVGGAADQSPESLLQLKALKPGVIQILGVKTSRFLCQRPDGALYGSLHFDPEACSFRERLLEDGYNVYQSEAHGLPLHCPGNKSPHRDPAPRGPCRFLPLPGLPPALPEPPGILAPQPPDVGSSDPLSMVGGSQGRSPSYES | 40.2 | 36.4 | 0.84
A137L1F9L5M2 (Fc fusion) YSEGTFTSDYSKYLDSQAAQDFVQWLLDGGPSSGAPPPSGGGGSGGGGSGGGGSA[letters of human IgG1 Fc with changes omitted]GGGGAGGGGAGGGGAHPIPDSSPLLQFGGQVRQRYLYTDDAQQTEAHLEIREDGTVGGAADQSPESLLQLKALKPGVIQILGVKTSRFLCQRPDGALYGSLHFDPEACSFRERLLEDGYNVYQSEAHGLPLHCPGNKSPHRDPAPRGPCRFLPLPGLPPALPEPPGILAPQPPDVGSSDPLSMVGGSQGRSPSYES | 47.3 | 38.1 | 0.82
A123L1F9L5M2 (Fc fusion) YSEGTFTSDYSKYLDEEAAQDFVQWLLDGGPSSGAPPPSGGGGSGGGGSGGGGSA[letters of human IgG1 Fc with changes omitted]GGGGAGGGGAGGGGAHPIPDSSPLLQFGGQVRQRYLYTDDAQQTEAHLEIREDGTVGGAADQSPESLLQLKALKPGVIQILGVKTSRFLCQRPDGALYGSLHFDPEACSFRERLLEDGYNVYQSEAHGLPLHCPGNKSPHRDPAPRGPCRFLPLPGLPPALPEPPGILAPQPPDVGSSDPLSMVGGSQGRSPSYES | 51.3 | 41.2 | 0.74
A232L1F9L5M2 (Fc fusion) HSQGTFTSDYSKYLDEQAAQDFVQWLLAGGPSSGAPPPSGGGGSGGGGSGGGGSA[letters of human IgG1 Fc with changes omitted]GGGGAGGGGAGGGGAHPIPDSSPLLQFGGQVRQRYLYTDDAQQTEAHLEIREDGTVGGAADQSPESLLQLKALKPGVIQILGVKTSRFLCQRPDGALYGSLHFDPEACSFRERLLEDGYNVYQSEAHGLPLHCPGNKSPHRDPAPRGPCRFLPLPGLPPALPEPPGILAPQPPDVGSSDPLSMVGGSQGRSPSYES | 1.42 | 1.17 | 0.85
A209L1F9L5M2 (Fc fusion) YSEGTFTSDYSKYLDEQAAQDFVQWLLAGGPSSGAPPPSGGGGSGGGGSGGGGSA[letters of human IgG1 Fc with changes omitted]GGGGAGGGGAGGGGAHPIPDSSPLLQFGGQVRQRYLYTDDAQQTEAHLEIREDGTVGGAADQSPESLLQLKALKPGVIQILGVKTSRFLCQRPDGALYGSLHFDPEACSFRERLLEDGYNVYQSEAHGLPLHCPGNKSPHRDPAPRGPCRFLPLPGLPPALPEPPGILAPQPPDVGSSDPLSMVGGSQGRSPSYES | 51.4 | 56.1 | 1.67
A175L1F9L5M2 (Fc fusion) YSEGTFTSDYSKYLDSQAAQDFVQWLLAGGPSSGAPPPSGGGGSGGGGSGGGGSA[letters of human IgG1 Fc with changes omitted]GGGGAGGGGAGGGGAHPIPDSSPLLQFGGQVRQRYLYTDDAQQTEAHLEIREDGTVGGAADQSPESLLQLKALKPGVIQILGVKTSRFLCQRPDGALYGSLHFDPEACSFRERLLEDGYNVYQSEAHGLPLHCPGNKSPHRDPAPRGPCRFLPLPGLPPALPEPPGILAPQPPDVGSSDPLSMVGGSQGRSPSYES | 42.3 | 52.2 | 0.71
A089L1F9L5M2 (Fc fusion) YSEGTFTSDYSKYLDEEAAQDFVQWLLAGGPSSGAPPPSGGGGSGGGGSGGGGSA[letters of human IgG1 Fc with changes omitted]GGGGAGGGGAGGGGAHPIPDSSPLLQFGGQVRQRYLYTDDAQQTEAHLEIREDGTVGGAADQSPESLLQLKALKPGVIQILGVKTSRFLCQRPDGALYGSLHFDPEACSFRERLLEDGYNVYQSEAHGLPLHCPGNKSPHRDPAPRGPCRFLPLPGLPPALPEPPGILAPQPPDVGSSDPLSMVGGSQGRSPSYES | 45.7 | 37.5 | 0.87
